The campaign covered roughly 410,000 compounds. About 7,200 (1.8%) were called active. Inconclusive means that the source gave no clear call. Such entries were picked first, then a sample of the others. Calls come from the whole dose curve; as a rule, active = well fitted activation curve with a large enough effect; inconclusive = small, poorly fitted or top-dose-only effect, or another doubt; inactive = no such curve, though single readings can be large or run the other way. No potency is given beside an inconclusive call; the fits are too rough.
Test: qHTS of TDP-43 Inhibitors; note: nearly all actives have a fitted effect of over 50% in size; for growth rescue (activation): % of control where 0% means no effect
Conditions: TDP-43 expressing yeast growth rescue, BacTiter-Glo, 24 h; growth rescue (activation): at 46.1 µM (top of the series) unless noted
How it was run: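 Cell-based yeast growth screen: TDP-43 expression induced in galactose, inoculum OD600=0.02 after raffinose pregrowth to mid-log. Read-out BacTiter-Glo luminescence at 24 hr, 30 deg C; inhibition of toxicity seen as signal increase.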
Potency is the fitted concentration of half-maximal effect; tags give direction and shape of the fitted curve.

SMILES | Potency | growth rescue (activation)
COc1ccc2c(C)cc(Sc3nnnn3-c3ccccc3)nc2c1 | inconclusive [activator, single point] | –
CN1CCN(Cc2c(O)ccc3cc(Br)ccc23)CC1 | inconclusive [activator, single point] | –
O=C(COc1ccccc1)N1CCN(c2ccc([N+](=O)[O-])c(N3CCCCC3)c2)CC1 | inconclusive [activator, single point] | –
COc1ccccc1/C=C/C=N/Nc1cccc(C(=O)O)c1 | – | inconclusive: -91.1% [activator]
CCC(=O)C1=C(c2ccc(OC)c(OC)c2)N(C(=O)CC)n2c(nnc2-c2ccc(C)cc2)S1 | inconclusive [activator, partial curve] | –
COc1ccccc1NS(=O)(=O)c1ccc(-c2cc(C)no2)s1 | inconclusive [activator, partial curve] | –
O=C(COC(=O)/C=C/c1cccc(Cl)c1)Nc1c(F)cccc1F | – | inactive: -17.6%
O=S(=O)(Nc1ccon1)c1ccc(Br)cc1 | inconclusive [activator, single point] | –
COc1ccc(CNC(=O)C[C@H]2C[C@H](C(=O)N3CCCCC3)[C@@]3(CCc4ccccc4)c4[nH]c5ccc(Cl)cc5c4CCN3C2=O)cc1OC | inconclusive [activator, partial curve] | –
COc1cccc2c1C(=O)c1c(O)c3c(c(O)c1C2=O)CC(O)(C(C)=NNC(=O)c1ccc(Cl)c(Cl)c1)CC3OC1CC(N)C(O)C(C)O1 (stereo not drawn) | inconclusive [activator, single point] | –
O=C(/C=C/c1c[nH]c2ccccc12)c1ccccc1 | inconclusive [activator, single point] | –
COc1cc2ccccc2cc1C(=O)Nc1nccs1 | inconclusive [activator, partial curve, poor fit] | –
O=C(CCC(=O)n1ncc2ccccc21)NCc1ccc(F)cc1 | inconclusive [activator, partial curve, poor fit] | –
Cc1cc(=O)n(Cc2ccccc2)c2c1c(C)nn2C | inconclusive [activator, partial curve] | –
COc1ccccc1CNC(=O)c1ccc(OCc2c(C)noc2C)c(OC)c1 | – | inactive: 18.1%
Clc1ccc(COn2c(-c3ccc(Cl)cc3)nc3ccccc32)cc1 | – | inactive: 20.9%
COC(=O)c1ccccc1NC(=O)Cn1nc(C(F)(F)F)c2c1CCC2 | inconclusive [activator, single point] | –
O=C(Oc1c(Cl)cc(Cl)c2ccccc12)N1CCCC1 | active: 12.6 µM | –
COc1ccccc1-c1nc(SCC(=O)NCc2ccccc2)c2c(=O)n(C)c(=O)n(C)c2n1 | inconclusive [activator, single point] | –
O=C(Nc1cccc(S(=O)(=O)N2CCCCCC2)c1)c1cncc(Br)c1 | inconclusive [activator, single point] | –
CN(C)/C=N/c1sc2c(c1C#N)CCC2 | inconclusive [activator, partial curve] | –
COc1ccc(OC)c(CNS(=O)(=O)c2ccc(-c3coc(C)n3)cc2)c1 | – | inactive: 24.1%
Cc1nn(-c2ccccc2)c(Cl)c1/C=N/Nc1ccc(Cl)c(C(=O)O)c1 | inconclusive [activator, single point] | –

SMILES | Potency | growth rescue (activation)
COC(=O)c1ccc(NC(=O)C23CC4CC(C2)CC(n2cnc(Cl)n2)(C4)C3)cc1 | active: 25.1 µM | –
Cc1ccc(S(=O)(=O)N2CCC(C(=O)OC(C)C(=O)NCc3ccccc3)CC2)cc1C (stereo not drawn) | inconclusive [activator, full curve, poor fit] | –
COc1ccc(C(=O)C(C)N(C(=O)c2ccc(Cl)cc2Cl)N2C(=O)C3C4C=CC(C4)C3C2=O)cc1 (stereo not drawn) | inconclusive [activator, single point] | –
CC(=O)O[C@]1(C(C)=O)CC[C@H]2[C@@H]3C=C(Cl)C4=CC(=O)CC[C@]4(C)[C@H]3CC[C@@]21C | – | inactive: 11.8%
COc1ccc(-c2noc(CN(C(=O)C(C)Oc3ccc(C)cc3)C(C)C)n2)cc1 (stereo not drawn) | active: 35.5 µM | –
COC(=O)c1ccc2nc(-c3ccc(OC)c(OC)c3)c(Cc3ccc(C)cc3)n2c1 | active: 22.4 µM | –
Cc1cc(C)cc(NC(=S)NCC2CCCO2)c1 (stereo not drawn) | inconclusive [activator, partial curve, poor fit] | –
O=C(COC(=O)c1ccc2ncsc2c1)NCc1ccccc1Cl | active: 20 µM | –
COc1ccccc1-c1cccc(-c2nc(C(=O)Nc3nccs3)cc3c2[C@@H](CCO)N(C(=O)CC2CC2)C3)c1 | inconclusive [activator, partial curve] | –
COCCCNc1nc(N)c([N+](=O)[O-])c(NCc2ccccc2)n1 | inconclusive [activator, partial curve] | –
COc1ccccc1NC(=O)CC(c1ccc(F)cc1)c1ccco1 (stereo not drawn) | inconclusive [activator, single point] | –
Cc1ccc(C)c(C(=O)COc2ccccc2[N+](=O)[O-])c1 | inconclusive [activator, single point] | –
COC(=O)c1cc(C#N)c(Oc2ccc(F)cc2)nc1C | inconclusive [activator, partial curve] | –
CCOC(=O)c1cc([N+](=O)[O-])c([N+](=O)[O-])cc1NC(C)=O | – | inconclusive: -94.3% [activator]
CCc1ccc(CNC(=O)Cn2nc(-c3ccc(C)cc3)ccc2=O)cc1 | inconclusive [activator, single point] | –
CCC(=O)N1CCc2cc(Br)cc(S(=O)(=O)N3CCCCCC3)c21 | inconclusive [activator, single point] | –
COc1ccc(-c2csc(-c3ccc(O)cc3)n2)cc1 | inconclusive [activator, partial curve] | –
Cn1nnc2c(N3CCN(c4ccc(F)cc4)CC3)ncnc21 | inconclusive [activator, single point] | –
Cc1ccc(-n2c(C)nc3c(cnn3-c3ccc(C)c(C)c3)c2=O)cc1C | inconclusive [activator, partial curve] | –
Cc1cc(-c2cc(-c3ccccc3)on2)nc(NC2CCCC2)n1 | inconclusive [activator, single point] | –
O=C(O)c1ccc(N/N=C/c2cccc(F)c2)cc1 | – | inactive: -5.23%
CCc1ccc(C(=O)NCC2COc3ccccc3O2)o1 (stereo not drawn) | inconclusive [activator, partial curve] | –
Cc1cccc(NC(=O)CCSc2ccccn2)c1 | inconclusive [activator, full curve, poor fit] | –

SMILES | Potency | growth rescue (activation)
CCOC(=O)c1nc(Nc2ccc(C(=O)OC(C)C)cc2)c2ccccc2n1 | – | inactive: 19.5%
CC(=O)Nc1nc(-c2ccc(Cl)cc2)nc(C)c1C(C)=O | active: 35.5 µM | –
CCc1ccc(C2CC(c3ccc(Cl)cc3)=NNC2=O)cc1 (stereo not drawn) | inconclusive [activator, single point] | –
COc1ccccc1NC(=O)c1oc2ccccc2c1NC(=O)Cc1ccccc1 | inconclusive [activator, full curve, poor fit] | –
CCCC1COC(Cn2cncn2)(c2ccc(C)cc2)O1 (stereo not drawn) | inconclusive [activator, partial curve, poor fit] | –
CCOC(=O)c1cnc2c(ccc3ccccc32)c1NCCO | – | inactive: 8.25%
COc1cc(C(=O)NCCc2csc(-c3ccc(Cl)cc3)n2)cc(OC)c1OC | active: 22.4 µM | –
CC(C)N1C(=O)S/C(=C/c2cccnc2)C1=O | inconclusive [activator, partial curve] | –
C=CCSc1n[nH]c(-c2ccc(OCCCC)cc2)n1 | inconclusive [activator, partial curve] | –
COc1ccc(C2c3c(n(C)c4ccccc34)C(=O)N2CC(=O)Nc2cccc(Cl)c2)cc1 (stereo not drawn) | – | inactive: 1.94%
CCc1nc2ccc(C(=O)O)cc2nc1CC | inconclusive [activator, partial curve] | –
O=C(Nc1nnc(SCc2ccccc2F)s1)C1=COCCO1 | inconclusive [activator, partial curve] | –
COc1ccc(CNC(=O)c2sc(=O)n(Cc3ccccc3OC)c2C)cc1 | active: 25.1 µM | –
Cc1ccc2c(c1)N(C(=O)Nc1cccc3c1CCCC3)CCO2 | inconclusive [activator, partial curve, poor fit] | –
Cc1cccc(Nc2nc(N)c([N+](=O)[O-])c(N3CCCC(C)C3)n2)c1 (stereo not drawn) | – | inactive: -86.2%
COc1ccc(NC(=S)Nc2cc(C)cc(C)n2)cc1OC | inconclusive [activator, partial curve] | –
O=C(N1CCN(c2ccccc2F)CC1)C1(S(=O)(=O)c2ccc(Cl)cc2)CC1 | inconclusive [activator, single point] | –
Clc1ccc(-c2csc(N/N=C/c3cccnc3)n2)c(Cl)c1 | active: 12.6 µM | –
Cc1cn2c(=O)c(S(=O)(=O)Nc3ccc(F)cc3F)c(C)nc2s1 | – | inactive: 19.4%
Cc1noc2ncnc(Sc3ccc(Br)cc3)c12 | active: 5.62 µM | –
CC(C)(C)OC(=O)C[C@@H]1C/C=C\C[C@@H](CC(=O)NCCO)C(=O)NCCOC1=O | – | inactive: 3.99%
COc1ccc2c(c1)CC/C(=C\c1ccc(OC)c(Cn3cccn3)c1)C2=O | inconclusive [activator, single point] | –

Reference: PubChem BioAssay AID652104 (National Center for Advancing Translational Sciences (NCATS), 2013)
